# Test results reported in PMC4336329 (PLoS ONE, 2015).
# Screen size: about 310,000 compounds; about 2,200 (0.71%) showed an effect of 50% or more. Effects have a minus sign here. The list shows a part of the results. Where a SMILES comes first, the peptide text is derived from it. [ ]: non-standard residue; d: D form. ξ: configuration not given here. ξF = NC(Cc1ccccc1)C(=O)O
# Molecular target: human ether-à-go-go-related gene (hERG) potassium channel (human, UniProt Q12809)
# Assay: primary screen, population patch clamp on CHO cells stably expressing hERG
# human ether-à-go-go-related gene (hERG) potassium channel, sequence (Q12809 whole entry, looked up): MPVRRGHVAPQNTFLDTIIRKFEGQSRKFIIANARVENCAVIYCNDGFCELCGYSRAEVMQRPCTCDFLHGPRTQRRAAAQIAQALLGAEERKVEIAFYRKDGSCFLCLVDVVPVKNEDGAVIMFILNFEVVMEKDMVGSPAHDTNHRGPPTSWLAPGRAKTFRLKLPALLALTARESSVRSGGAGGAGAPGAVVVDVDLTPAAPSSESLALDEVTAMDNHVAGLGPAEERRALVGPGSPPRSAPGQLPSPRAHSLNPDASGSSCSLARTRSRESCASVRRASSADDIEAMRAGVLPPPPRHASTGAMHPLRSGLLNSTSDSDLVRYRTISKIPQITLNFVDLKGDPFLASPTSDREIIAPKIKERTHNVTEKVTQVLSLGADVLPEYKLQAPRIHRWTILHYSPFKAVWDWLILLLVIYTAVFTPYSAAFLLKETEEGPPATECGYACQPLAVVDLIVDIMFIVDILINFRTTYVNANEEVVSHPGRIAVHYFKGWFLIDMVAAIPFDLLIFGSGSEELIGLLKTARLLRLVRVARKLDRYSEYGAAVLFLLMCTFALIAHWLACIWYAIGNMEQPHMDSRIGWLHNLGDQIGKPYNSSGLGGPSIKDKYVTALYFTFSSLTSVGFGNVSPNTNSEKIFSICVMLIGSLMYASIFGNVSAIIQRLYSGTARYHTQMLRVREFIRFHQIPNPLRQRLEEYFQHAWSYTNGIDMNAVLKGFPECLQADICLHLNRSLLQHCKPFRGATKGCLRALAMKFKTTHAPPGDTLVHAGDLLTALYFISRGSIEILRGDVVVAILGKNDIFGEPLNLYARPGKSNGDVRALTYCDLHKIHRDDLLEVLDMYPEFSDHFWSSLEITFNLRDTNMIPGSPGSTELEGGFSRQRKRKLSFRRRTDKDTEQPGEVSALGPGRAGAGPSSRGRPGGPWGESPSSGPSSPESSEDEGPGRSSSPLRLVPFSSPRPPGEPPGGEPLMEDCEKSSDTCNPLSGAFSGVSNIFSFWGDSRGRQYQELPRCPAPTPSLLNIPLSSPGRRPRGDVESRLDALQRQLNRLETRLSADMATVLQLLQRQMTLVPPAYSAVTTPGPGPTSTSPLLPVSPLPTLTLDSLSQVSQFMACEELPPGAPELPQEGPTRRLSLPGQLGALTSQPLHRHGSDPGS
row,Compound,"hERG current change (%, negative = inhibition) at 1uM"
1,COc1cc(/C=C2\C(=O)ON=C2c2ccc(Cl)cc2)ccc1O,12.6%
2,CCCn1c2ccccc2c2cnn(CC(=O)NC(C)CC)c(=O)c21 (stereo not shown),11.7%
3,Cc1ccc(-c2noc(CNc3ccccc3)n2)cc1,6.42%
4,COc1cc(OC)c(C2N(c3ccc(Cl)c(Cl)c3)C(=O)C3CCCN32)cc1OC (stereo not shown),2.22%
5,CN1C(=O)C2(Oc3ccccc3C3CC(c4ccccc4)=NN32)c2ccccc21 (stereo not shown),6.1%
6,O=C(O)C(O)c1ccccc1.O=C(O)C(O)c1ccccc1 (stereo not shown),18.6%
7,CCN(CC(=O)Nc1ccc(S(=O)(=O)N2CCOCC2)cc1)Cc1ccccc1,17%
8,Cc1cc(C(F)(F)F)c2c(C)nn(CCc3nn[nH]n3)c2n1,-0.22%
9,CC(=O)c1sc(C(C)(C)C)cc1NC(=O)CCC(=O)O,10.6%
10,COc1ccccc1CNC(=O)COC(=O)c1cc([N+](=O)[O-])ccc1N1CCOCC1,-13.7%
11,Cc1c(-n2cc(C(=O)O)c(=O)c3cc(F)c(N4CCCC(O)C4)c(F)c32)c(=O)n(-c2ccccc2)n1C (stereo not shown),6.46%
12,CC(=O)NCC(=O)NC(Cc1ccccc1)C(N)=O (stereo not shown) (Ac-Gly-[ξF]-NH2),10.1%
13,CC(C)c1cc(C(=O)O)c2cnn(C(C)C)c2n1,-4.12%
14,Cc1csc(/C(=N\O)c2csc(C)n2)n1,7.71%
15,CCN(CC)CCCN1C=C2C(=O)C(C)(OC(=O)CCC(=O)OC)C(=O)C=C2C=C1C1CC1 (stereo not shown),-6.2%
16,Cc1ccc(Cn2nc(C)c(NC(=O)C3CC3)c2C)cc1,6.57%
17,CC(=C/c1ccccc1)/C=N/NC(=O)c1ccccn1,0.84%
18,CCOc1ncccc1C(=O)N1CCN(S(=O)(=O)c2ccc3c(c2)OCCO3)CC1,8.5%
19,O=c1oc(-c2cc3ccccc3o2)nc2sc3c(c12)CCCC3,10.7%
20,COc1ccc(Nc2nc(N)c([N+](=O)[O-])c(NC3CCCCC3)n2)cc1,8.56%
21,O=C(O)c1cc(=O)cc(C(=O)O)[nH]1,7.81%
22,CNC(=S)N1N=C(c2cccs2)CC1c1ccc(F)cc1 (stereo not shown),0.109%
23,Nc1c(NCc2ccccc2)c(=O)[nH]c(=O)n1Cc1ccccc1,-16.7%
24,Cc1ccc2[nH]c3c(c2c1)CN(C)CC3.Cl,8.17%
25,CCN(CC)S(=O)(=O)c1cccc(NC(=O)COc2ccc(Cl)cc2Br)c1,10.8%
